This is an account of results in US9724435B2 (The University of Mississippi, priority 2007, dated 2017).

The Ki is a measure of affinity in units of concentration, obtained from inhibition or displacement. The tissue uptake is the share of the injected amount in each gram of the tissue. Low values mean low uptake, high ones high uptake.

Where only a bound is given, the exact number is not on record here.

One data set concerns the target σ-1 receptor (Homo sapiens (Human), UniProt Q99720). Nature of the data set: Cell uptake in CHO cells transfected with σ-1 receptor cDNA. Type of data set: cell-based. Conditions: 120 min.
Data set [1] concerns the target norepinephrine transporters (Rattus norvegicus, UniProt Q63380). Nature of the data set: Non-σ competition binding, [3H]nisoxetine. Conditions: rat brain homogenates; read-out: NET Ki.
For data set [2], the system named is cocaine-induced locomotor activity. The data set can be described thus: Cocaine-induced locomotor activity. Type of data set: in vivo, mice. Particulars: pretreatment i.p. 15 min before cocaine 20 mg/kg i.p.
Data set [3] relates to cocaine-induced sensitization. The data set can be described thus: Expression of cocaine-induced sensitization. The data set is classed as in vivo, mice. Particulars: pretreatment on Day 15 before cocaine 10 mg/kg i.p.
Data set [4] concerns methamphetamine-induced locomotor activity. Nature of the data set: Methamphetamine-induced locomotor activity. Type of data set: in vivo, mice. Conditions: pretreatment i.p. 15 min before methamphetamine 1 mg/kg i.p.
For another data set, the system named is striatal dopamine levels. The data set can be described thus: Methamphetamine-induced dopamine depletions. Particulars: methamphetamine 5 mg/kg x4 at 2 hr intervals. The data set is classed as in vivo, mice.
The test system of data set [5] is cocaine-induced convulsions. Nature of the data set: Cocaine-induced convulsions.
Another data set addresses σ-1 (Rattus norvegicus (Rat), UniProt Q9R0C9). Nature of the data set: σ-1 binding in rat brain homogenates, [3H](+)-pentazocine. Particulars: read-out: σ-1 (Ki).
The target of a further data set is σ-2 (Rattus norvegicus (Rat), UniProt Q5U3Y7). Nature of the data set: σ-2 binding in rat brain homogenates, [3H]DTG plus (+)-pentazocine. Particulars: for σ-1/σ-2: ratio of Ki values; for Ki: read-out: σ-2 (Ki), rat brain homogenates.
Data set [6] deals with cocaine-induced sensitization. Nature of the data set: Development of cocaine-induced sensitization. Type of data set: in vivo, mice. Conditions: pretreatment Days 1-5, cocaine 10 mg/kg i.p., test Day 15. The method, then: Male, Swiss Webster mice were acclimated as detailed above. […] The total locomotor activity (ambulatory, fine and rearing movements) of the mice was recorded for the next 30 min as the number of disruptions made by them in the 16×16 photobeam grids of their testing chamber on each of the five days. A 10 day drug-free period followed. On Day 15, all of the mice were pre-administered (i.p.) saline followed by cocaine (10 mg/kg, i.p.), and locomotor activity quantified for the next 30 min.

Data set [7] is described as follows: Stability of formulated radioligand by analytical HPLC. Type of data set: physicochemical. Conditions: saline/ethanol (9:1), analytical reverse-phase HPLC. The source says: The design strategy for generating [^18F]
Data set [8] can be described thus: Small-animal PET imaging of mouse brain. Particulars: Balb C, intravenous.
Where [9] appears, read: pretreatment i.p. 15 min before cocaine 70 mg/kg i.p.

Sequence of UniProt Q5U3Y7 (Q5U3Y7 whole entry): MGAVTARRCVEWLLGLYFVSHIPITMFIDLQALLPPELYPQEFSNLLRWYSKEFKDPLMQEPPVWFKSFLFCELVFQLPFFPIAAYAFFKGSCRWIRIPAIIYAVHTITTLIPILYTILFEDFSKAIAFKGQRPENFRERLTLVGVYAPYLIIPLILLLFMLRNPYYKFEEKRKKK
Sequence of UniProt Q9R0C9 (Q9R0C9 whole entry): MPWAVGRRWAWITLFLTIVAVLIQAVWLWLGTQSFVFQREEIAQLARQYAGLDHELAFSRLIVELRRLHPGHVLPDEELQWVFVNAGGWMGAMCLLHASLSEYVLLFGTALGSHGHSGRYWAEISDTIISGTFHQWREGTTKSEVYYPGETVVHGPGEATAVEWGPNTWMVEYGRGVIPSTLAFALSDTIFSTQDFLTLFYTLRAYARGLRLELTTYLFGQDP
Sequence of UniProt Q99720 (Q99720 whole entry): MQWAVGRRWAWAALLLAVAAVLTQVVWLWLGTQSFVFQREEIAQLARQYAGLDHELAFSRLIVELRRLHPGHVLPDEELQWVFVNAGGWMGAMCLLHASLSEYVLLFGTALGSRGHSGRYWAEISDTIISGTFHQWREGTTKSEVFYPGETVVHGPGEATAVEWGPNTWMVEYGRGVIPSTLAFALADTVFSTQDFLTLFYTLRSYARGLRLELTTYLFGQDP

In the case of `CC(C)=CCN1CC[C@]2(C)c3cc(O)ccc3C[C@H]1[C@H]2C` [(+)-[^3H] pentazocine, reference compound], the “uptake in σ-1 receptor cDNA transfected CHO cells vs control CHO cells” value at σ-1 receptor worked out at 3.6 fold.

Consider `S=c1sc2ccccc2n1CCCCN1CCN(C2CCCCC2)CC1` [CM156], for which the Ki in [1] is more than 10000 nM. Further, in data set [2], the cocaine-induced locomotor activity result is listed as “significant attenuation”. Further, the “expression of cocaine-induced sensitization” value in data set [3] is given as “attenuates”. The methamphetamine-induced locomotor activity result in data set [4] is “attenuated”. Moreover, in the data set with striatal dopamine levels, the “neurotoxic effects of methamphetamine (dopamine depletions)” value is given as “attenuated”. Also, in data set [5] (setting [9]), the cocaine-induced convulsions result is “significant attenuation”. For the compound `Cl.O=c1sc2cc(CCCF)ccc2n1CCN1CCCCCC1` [CM304, 3-(2-(azepan-1-yl)ethyl)-6-(3-fluoropropyl)benzo[d]thiazol-2(3H)-one hydrochloride], the cocaine-induced convulsions entry in [5] (0.001-10 mg/kg i.p. 15 min before cocaine 70 mg/kg i.p.) was “significantly attenuated”. For the compound `CC(=O)c1ccc2c(c1)oc(=O)n2CCCCN1CCN(c2ccc(F)cc2[N+](=O)[O-])CC1` [CM592], the Ki at σ-1 amounted to 369 ± 14.2 nM. Same read-out and setting: the figure for `Cn1c(=O)n(CCCCN2CCN(c3ccc(F)cc3N)CC2)c2ccccc21` [CM599] is 216 ± 11.8 nM; for `O=c1[nH]c2ccccc2n1CCCCN1CCN(c2ccc(F)cc2)CC1` [CM728] it is 1862 ± 11.8 nM. In the case of `O=c1oc2ccccc2n1CCCCN1CCN(C2CCCCC2)CC1` [CM 121], the σ-1/σ-2 on σ-2 is recorded as 6.2. The same measure, in the same setting: as for `O=c1oc2ccccc2n1CCCCCN1CCN(C2CCCCC2)CC1` [CM 126], the figure is 1.8. For `CN1CCN(CCCCn2c(=O)oc3ccccc32)CC1` [CM 160], the inhibition constant Ki on σ-1 is 91.7 ± 11.5 nM.

For the compound `CCc1ccc2oc(=O)n(CCCCN3CCN(C4CCCCC4)CC3)c2c1` [CM 174], the inhibition constant (Ki) on σ-2 was 58.2 ± 11.5 nM.

For the compound `O=c1oc2ccccc2n1CCN1CCN(CCc2ccccc2)CC1` [CM 176], the inhibitory constant (Ki) on σ-2 is 21.7 ± 2.79 nM.

With `Fc1ccc(N2CCN(CCCCn3ccc4ccccc43)CC2)cc1` [CM 338], the Ki on σ-1 came to 170 ± 5.68 nM. `CC(=O)c1ccc2oc(=O)n(CCCCN3CCN(c4ccc(F)cc4)CC3)c2c1` [CM 356]: the results for the Ki at σ-1 and on σ-2 were 27.8 ± 4.14 nM and 1.21 ± 0.2 nM, respectively. Regarding `O=c1oc2ccccc2n1CCCCN1CCN(c2ccccc2F)CC1` [CM 362], at σ-1, the inhibition constant (Ki) came out at 17.6 ± 3.34 nM. Turning to `O=c1oc2ccc(-c3ccc(F)cc3)cc2n1CCCCN1CCN(C2CCCCC2)CC1` [CM 366], the Ki came out at 22.6 ± 1.14 nM on σ-1 and 0.0061 ± 0.00096 nM on σ-2. `O=c1oc2ccccc2n1CCCCCCN1CCN(C2CCCCC2)CC1` [SN-48]: the σ-1/σ-2 on σ-2 is given as 1.5. As to `CCCCCCCc1ccc2c(c1)sc(=O)n2CCCCN1CCN(C2CCCCC2)CC1` [SN-57], the inhibition constant (Ki) at σ-1 came to 43.8 nM; on σ-2 it was 29.3 nM.

As for `O=C(c1ccccc1)c1ccc2c(c1)sc(=O)n2CCN1CCCCCC1` [SN-78], the Ki at σ-1 came to 88.3 nM; on σ-2 it was 860 nM. `CC(=O)c1ccc2c(c1)oc(=O)n2CCCCN1CCN(c2ccc(F)cc2)CC1.Cl.Cl` [SN-79]: the cocaine-induced locomotor activity entry in [2] is “significant attenuation”. Also, the “development of cocaine-induced sensitization” value in data set [6] was “attenuates”. The “expression of cocaine-induced sensitization” value in data set [3] is listed as “attenuates”. Besides, the cocaine-induced convulsions entry in [5] (setting [9]) was “significant attenuation”.

`Cl.Cl.O=c1sc2ccccc2n1CCCCCCN1CCN(C2CCCCC2)CC1` [SN-102]: the σ-1/σ-2 at σ-2 is given as 4.40. With `Nc1ccc2c(c1)oc(=O)n2CCCCN1CCN(c2ccc(F)cc2)CC1` [SN-228], the Ki at σ-2 turned out to be 177 ± 10.2 nM. For `O=c1sc2cc(CCC[18F])ccc2n1CCN1CCCCCC1` [[^18F]FTC-146, 6-(3-fluoropropyl)-3-(2-(azapan-1-yl)ethyl)benzo[d]thiazol-2(3H)-one], the “uptake in σ-1 receptor cDNA transfected CHO cells vs control CHO cells” value on σ-1 receptor is given as 4 fold. Besides, in [7], the “stability of formulated version” value is “at least 5.5 hours”. This compound yielded a tissue uptake at 60 min in data set [8] of 6 %ID/g.
